Target: T1, KDR expressed on transiently transfected 293H cells (human, UniProt P35968)
T1 construct: whole, on cells; also called KDR-expressing cells
Assay: fluorescent bead binding to KDR-transfected and mock 293H cells

T1 sequence (P35968 20-1356): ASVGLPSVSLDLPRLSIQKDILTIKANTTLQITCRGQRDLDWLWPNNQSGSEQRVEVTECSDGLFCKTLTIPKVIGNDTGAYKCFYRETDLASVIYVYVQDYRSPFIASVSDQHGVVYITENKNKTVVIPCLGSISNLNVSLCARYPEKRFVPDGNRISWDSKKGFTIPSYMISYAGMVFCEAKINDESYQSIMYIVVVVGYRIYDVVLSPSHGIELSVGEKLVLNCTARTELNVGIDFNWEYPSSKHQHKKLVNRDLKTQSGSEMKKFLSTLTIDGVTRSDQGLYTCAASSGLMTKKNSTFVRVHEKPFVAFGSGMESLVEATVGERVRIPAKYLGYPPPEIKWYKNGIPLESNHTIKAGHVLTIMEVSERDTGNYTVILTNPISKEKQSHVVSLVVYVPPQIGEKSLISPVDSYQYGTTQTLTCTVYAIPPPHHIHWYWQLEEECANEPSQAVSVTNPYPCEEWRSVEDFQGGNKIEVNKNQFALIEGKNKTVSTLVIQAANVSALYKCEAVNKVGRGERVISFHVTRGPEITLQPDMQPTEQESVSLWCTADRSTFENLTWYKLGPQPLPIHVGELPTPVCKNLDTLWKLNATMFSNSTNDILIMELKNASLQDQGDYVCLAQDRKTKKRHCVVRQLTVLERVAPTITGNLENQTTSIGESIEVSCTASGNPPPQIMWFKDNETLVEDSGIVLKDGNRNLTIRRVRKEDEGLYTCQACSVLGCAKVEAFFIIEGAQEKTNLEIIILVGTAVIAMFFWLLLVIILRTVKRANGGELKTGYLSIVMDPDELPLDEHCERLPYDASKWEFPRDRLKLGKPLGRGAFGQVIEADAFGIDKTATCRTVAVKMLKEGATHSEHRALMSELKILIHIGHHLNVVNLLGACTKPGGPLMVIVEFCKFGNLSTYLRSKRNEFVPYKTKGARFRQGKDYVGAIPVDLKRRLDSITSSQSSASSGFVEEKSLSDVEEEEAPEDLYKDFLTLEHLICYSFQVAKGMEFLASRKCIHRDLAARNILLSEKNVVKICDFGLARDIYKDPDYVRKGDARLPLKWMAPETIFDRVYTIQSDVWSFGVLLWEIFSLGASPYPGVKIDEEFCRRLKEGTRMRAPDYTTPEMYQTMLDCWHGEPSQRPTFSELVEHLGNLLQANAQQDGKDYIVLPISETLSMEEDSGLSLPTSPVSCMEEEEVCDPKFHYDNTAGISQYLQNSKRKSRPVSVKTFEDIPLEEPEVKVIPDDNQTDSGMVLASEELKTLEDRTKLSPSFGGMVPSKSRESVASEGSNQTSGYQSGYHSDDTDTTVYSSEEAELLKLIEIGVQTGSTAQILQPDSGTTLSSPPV

binding result: no binding
B1: unconjugated neutravidin-coated fluorescent beads (other, UniProt P02701 25-152, looked up)
chain: ARKCSLTGKWTNDLGSNMTIGAVNSRGEFTGTYITAVTATSNEIKESPLHGTQNTINKRTQPTFGFTVNWKFSESTTVFTGQCFIDRNGKEVLKTMWLLRSSVNDIGDDWKATRVGINIFTRLRTQKE
modifications: on 2 micron red fluorescent microspheres
notes: negative control; also called avidin beads with nothing attached

From patent US20140161732A1 (published 2014)
